# Test results: PubChem BioAssay AID1745853 (National Center for Advancing Translational Sciences (NCATS), 2022)
# The other results are listed elsewhere or left out. Shown are side measurements of this screen, not its main read-out; they come without a call. Peptide text beside a SMILES is read from it. * marks the point of attachment. AFC = O=c1cc(C(F)(F)F)c2ccc(N*)cc2o1
# Experiments:
# Experiment in all cases: Primary Screen for Target Class Profiling of Small Molecule Inhibitors of Methyltransferases
# [1] = molecular target: Glycine N-methyltransferase (Homo sapiens) (UniProt Q14749); conditions: purified enzyme, MTase-Glo SAH luminescence; measured here: GNMT inhibition; at 40 µM; stronger effect = lower value
# In short: (§1)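 Each enzyme was assayed with SAM and its substrate. SAH formation detected by MTase-Glo luminescence; single-point 40 uM screen[…].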
# [2] = molecular target: Guanidinoacetate N-methyltransferase (Homo sapiens) (UniProt Q14353); conditions: purified enzyme, MTase-Glo SAH luminescence; measured here: GAMT inhibition; at 40 µM; stronger effect = lower value
# In short: as §1
# [3] = molecular target: Histamine N-methyltransferase (Homo sapiens) (UniProt P50135); conditions: purified enzyme, MTase-Glo SAH luminescence; measured here: HNMT inhibition; at 40 µM; stronger effect = lower value
# In short: as §1
# [4] = molecular target: Nicotinamide N-methyltransferase (Homo sapiens) (UniProt P40261); conditions: purified enzyme, MTase-Glo SAH luminescence; measured here: NNMT inhibition; at 40 µM; stronger effect = lower value
# In short: as §1
# [5] = molecular target: Phenylethanolamine N-methyltransferase (Homo sapiens) (UniProt P11086); conditions: purified enzyme, MTase-Glo SAH luminescence; measured here: PNMT inhibition; at 40 µM; stronger effect = lower value
# In short: as §1
# % is set by controls: 0 for no effect and ±100 for the full control effect.
Compound,"activity change, negative = inhibition [1] [%]","activity change, negative = inhibition [2] [%]","activity change, negative = inhibition [3] [%]","activity change, negative = inhibition [4] [%]","activity change, negative = inhibition [5] [%]"
COc1ccccc1CNC(=O)C1c2c(n(C)c3ccccc23)SCC(=O)N1c1ccc(C)c(C)c1 (stereo not drawn),7.39,0.608,1.58,2.62,7.45
O=C(NCc1cccs1)c1cc2nc(-c3ccco3)cc(C(F)(F)Cl)n2n1,-11,-30.8,-0.04,-46.4,-24.6
Cc1nc2ccc(Oc3ccc(F)cc3)cc2c(=O)n1C[C@H]1CCCN(C(C)C)C1,2.82,11.1,-5.93,-9.16,3.75
COCC(=O)NC[C@H]1CCN(Cc2ccc(C)s2)C[C@H]1N(C)C,-1.46,0.573,-1.28,-3.28,1.27
COCCS(=O)(=O)c1ncc(CN(C)Cc2ccsc2)n1Cc1ccccc1,-4.6,-6.14,-1.3,-15.4,-5.1
Cc1ccccc1CN1CCOc2cc([S+](=O)([O-])Nc3cccnc3)ccc2C1,-6.33,-2.35,-0.574,-7.74,-7.14
CC1(C(=O)NC2CCCCCC2)Cn2c(cc3occc32)C(=O)N1Cc1cccs1 (stereo not drawn),3.69,2.33,6.72,-13.2,-0.83
CSc1cccc(N2C(=O)c3cc(C(C)(C)C)nn3CC2(C)C(=O)NC2CCCCC2)c1 (stereo not drawn),-2.43,-0.477,-1.89,2.84,-0.283
N#Cc1ccc(C(=O)N2CCC3(CC2)N=C(N)c2c(F)ccc(F)c2N3)cn1,-7.34,-19.5,-19.4,-27.5,-23.4
Cc1cccc(Cn2nc3n(CCc4ccccc4)c(=O)c4ccccc4n3c2=O)c1,0.519,4.38,5.55,0.714,0.495
CCC(C)NC(=O)c1ccc2c(=O)n(C(C)C)c3nn(CC(=O)c4cccc(OC)c4)c(=O)n3c2c1 (stereo not drawn),-1.49,2.84,-0.019,-0.856,0.344
CCCn1c(=O)c2ccc(Cl)cc2n2c(SCC(=O)Nc3ccccc3F)nnc12,1.26,-1.32,12.9,-4.7,-2.54
CC(NC(=O)Cn1ccc2cc(S(=O)(=O)N3CCCC3)ccc21)c1ccccc1 (stereo not drawn),3.48,0,0.188,0.189,-1.07
c1ccc(-c2ccc(CN3CCOC[C@H](Oc4cnccn4)C3)cc2)cc1,-5.78,-4.76,-6.74,-12.3,-8.89
CC1(C(=O)NC2CCCCCCC2)Cn2c(cc3sccc32)C(=O)N1CCCc1ccccc1 (stereo not drawn),4.65,0,7.57,7.56,3.39
Cn1ncc2c(-c3ccc([S+](C)(=O)[O-])cc3)cc(C(=O)N3CCCC3)nc21,-12.5,-10,-18.2,-12.1,-20.3
COc1ccc(CCO[C@@H]2CCCC[C@H]2N2CC[C@@H](O)C2)cc1OC,5.97,7.6,-4.87,-7.91,7.46
CCOc1ccc(CCNC(=O)c2cc3n(n2)CC(C)(C(=O)NC2CCCCC2)N(C)C3=O)cc1 (stereo not drawn),-2.8,-3.89,2.59,-7.66,-6.12
NC(N)=NC(N)=Nc1ccccc1,8.02,13.9,-11.6,-0.7,5.92
Cc1ccc(Cn2c(=O)c3ccccc3n3c(CCC(=O)N4CCC(N5CCCCC5)CC4)nnc23)cc1,-9.34,0,-66,11.2,1.88

Compound,"activity change, negative = inhibition [1] [%]","activity change, negative = inhibition [2] [%]","activity change, negative = inhibition [3] [%]","activity change, negative = inhibition [4] [%]","activity change, negative = inhibition [5] [%]"
COc1ccccc1CN[C@H]1CCCN[C@H]1c1ccccc1,8.11,8.99,5.41,-8.52,3.57
OC[C@@H]1CN(CC2CCCCC2)C[C@H]1c1nc(C2CC2)no1,-2.17,-2.67,1.58,-9.12,8.48
CC1(C(=O)NC2CCCCCCC2)Cn2c(ccc2-c2ccco2)C(=O)N1CCc1ccco1 (stereo not drawn),-7.01,0.594,1.84,-11.1,2.81
CCS(=O)(=O)N1CCC(N2C(=O)C(OCC3CC3)C23CCCCC3)CC1 (stereo not drawn),-1.45,-0.025,1.35,2.08,-8.68
C=C(C(=O)O)[C@@H]1CC[C@H](C)[C@@H]2CC(=O)C(C)=C2C1,0.552,6.45,9.88,-6.32,7.29
COC(=O)C[C@H]1C(C)(C)[C@H](OC(=O)C(C)C)[C@@]2(O)C(=O)[C@]1(C)C1CC[C@]3(C)C(CC(=O)O[C@H]3c3ccoc3)[C@]13O[C@@H]32 (stereo partly drawn),0,2.11,2.85,-10.5,4.72
CC(C)OCCCn1c(=O)c2ccccc2n2c(SCC(=O)Nc3cccc(F)c3)nnc12,-3.54,1.92,4.72,-6.94,-1.3
Cc1ccc(NC(=O)Cn2c(=O)c3cc(Cl)ccc3n3nncc23)cc1,-2.1,3.76,4.38,-2.56,-3.77
COC[C@@H]1CN(S(=O)(=O)c2c(C)noc2C)C[C@H]1c1ccncc1,-6.57,-1.8,0.181,-7.98,-4.36
CC(C)C1=NOC2(CCN([S+](=O)([O-])c3cccc(C(F)(F)F)c3)C2)C1 (stereo not drawn),-1.56,2,1.24,-1.92,-7.41
COc1cccc2c1CCC[C@H]2CN(C)CCc1ccc2ccoc2c1,0.441,-6.56,8.87,-18.7,-8.78
COc1c(Cl)cc2c([nH]c3cnccc32)c1NC(=O)c1cccnc1C,-24.4,-7.16,-9.26,-17.9,-1.34
CCCC1c2ccc(C)n2CCN1C(=O)NCC1CCC(C(=O)OCC)CC1 (stereo not drawn),-3.73,3.89,-5.4,0.217,-7.33
Cc1ccc(C(N)=O)cc1-c1cc(NCc2cccnc2)nc2[nH]ccc12,-22.5,-10.5,-26.8,-25.4,-37.9
Cn1c(=O)c2c(ncn2CC(=O)N2CCC(Cc3nc(C4CCOCC4)no3)CC2)n(C)c1=O,-4.25,-4.21,0.227,-6.55,-1.9
CCOc1ccc(N2C(=O)c3cc4sc(CC)cc4n3CC2(C)C(=O)NC2CCCCC2)cc1 (stereo not drawn),1.6,2.67,8.63,8.37,0.101
C=C[C@H]1[C@H](O[C@@H]2O[C@H](CO)[C@@H](O)[C@H](O)[C@H]2O)OC=C(C(=O)OC)[C@H]1C[C@@H]1c2cc(O)c(O)cc2CCN1C(C)=O,-0.386,-2.5,4.8,-15.5,-11
COc1ccc2c(c1O[C@H]1CCNC1)CCC2,3.31,7.58,-24.2,-9.02,5.68
O=S(=O)(c1ccccc1)c1nnn2c1nc(N1CCCCC1)c1ccccc12,-4.75,-7.81,-4.4,-11.7,-4.92
O=C1CCC[C@@H]2[C@@H]3CCC[N@+]4([O-])CCC[C@H](CN12)[C@H]34,,6.07,,-8.72,7.3

Compound,"activity change, negative = inhibition [1] [%]","activity change, negative = inhibition [2] [%]","activity change, negative = inhibition [3] [%]","activity change, negative = inhibition [4] [%]","activity change, negative = inhibition [5] [%]"
COc1cc(N2CCOCC2)ccc1NC(=O)c1csc(-c2cccnc2)n1,-13.6,-6.82,3.47,-21.7,-5.23
CC12CCC3c4ccc(O)cc4CCC3C1CCC2OC1OC(C(=O)O)C(O)C(O)C1O (stereo not drawn),-5.49,-1.54,10.6,-9.71,1.48
Cc1nn(CC(=O)NC(C)Cc2cnccn2)c(=O)n1CCc1ccccc1 (stereo not drawn),-3.04,-6.43,-1.97,-10.8,-4.12
COc1ccc(C[C@@H]2NC(=O)[C@@H]3C[C@@H](NC(=O)Nc4cccc(SC)c4)CCN3C2=O)cc1,-1.82,-5.9,0.274,-8.67,-2.78
COC(=O)c1cc2n(n1)CC(C)(C(=O)NC1CCCCCC1)N(Cc1cccc(OC)c1)C2=O (stereo not drawn),-7.04,-3.63,-10.7,-9.3,-3.65
COCCCN1C(=O)c2nc3ccccc3n2CC1(C)C(=O)NC1CCCC(C)C1C (stereo not drawn),5.36,4.24,8.22,9.01,4.06
NCCc1ccc(O)c(O)c1,-33.6,14.2,-86.3,-0.359,-29.7
O=C(CSCC1CC1)N1CCC2(CCC(=O)N(CCCn3ccnc3)C2)CC1,-7.91,-8.5,-7.3,-11.1,-0.161
COc1ccc(-c2cc3n(n2)CC(C)(C(=O)NC2CCCCC2)N(Cc2cccnc2)C3=O)cc1 (stereo not drawn),0.755,0,2.1,2.61,-3.18
Cc1ccc(S(=O)(=O)c2nnn3c2nc(N2CCOCC2)c2cc(Cl)ccc23)cc1C,-9.4,2.88,-2.36,1.28,-9.13
COc1ccccc1CN1C(=O)c2cc(C(C)(C)C)nn2CC1(C)C(=O)NC1CCCCC1 (stereo not drawn),0.238,3.31,5.04,-1.3,1.77
CCn1c(=O)n(CC)c2cc(S(=O)(=O)Nc3cccc(C)c3)ccc21,10.5,0.673,10.3,0.755,9.5
Cc1cc(F)ccc1C(=O)N1CCn2nc(Cc3ccccc3)cc2C1,-10.3,-4.07,-10.3,-13.6,-9.3
CC(C)OCCCNC(=O)C1(C)Cn2cnc(C(=O)Nc3cccc(Cl)c3)c2C(=O)N1C1CC1 (stereo not drawn),0.481,0,10.5,6.08,3.72
CC(=O)N[C@@H](Cc1c[nH]c2ccccc12)C(=O)N[C@@H](CCC(=O)O)C(=O)N[C@@H](Cc1cnc[nH]1)C(=O)N[C@@H](CC(=O)O)C(=O)Nc1ccc2c(C(F)(F)F)cc(=O)oc2c1 (Ac-WEHD-{AFC}),5.2,5.07,8.55,-8.77,3.48
Cc1nn(-c2ccccn2)c(C)c1[C@@H]1C=C[C@@H](NC(=O)NC(C)C)C1,-5.84,-5.28,-2.53,-6.33,-2.63
Cc1ccccc1C(=O)NCc1cccnc1Oc1cccc(C(F)(F)F)c1,3.55,0.431,0.411,-1.84,-16
CCn1cnnc1CC1CCN(C(=O)c2nccc3ccccc23)C1 (stereo not drawn),-2.12,-0.088,-0.697,-9.79,11.7
C=C(C(=O)O)C1CC2=C(C)C(=O)CC2C(C)CC1O (stereo not drawn),-0.093,3.12,11,-5.09,7.95
O=C1NCCOCCCN(C(=O)C2(c3ccccc3)CC2)[C@H]2CCCC[C@@H]12,-3.87,-7.21,-2.73,-8.32,-0.321
